# ± gives the standard deviation of the averaged measurements. The full ranking holds about 33,000 sequences; the median of “E-score (dimensionless, -0.5 to 0.5)” is about -0.046, and the highest 2% start at about 0.36. Some of the results follow.
# Tested on: T1, SpTbr T-box DNA-binding domain (GST fusion)
# T1 sequence: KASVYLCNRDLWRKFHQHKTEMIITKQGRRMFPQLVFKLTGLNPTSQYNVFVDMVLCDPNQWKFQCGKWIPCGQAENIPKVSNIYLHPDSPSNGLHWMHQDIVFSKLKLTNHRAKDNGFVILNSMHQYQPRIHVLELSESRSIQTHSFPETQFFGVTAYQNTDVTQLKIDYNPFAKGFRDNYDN
# Test: PBM E-score of 8-mer (E-score (dimensionless, -0.5 to 0.5)); Tbr is Tbrain of the sea star Patiria miniata (Pm) or the sea urchin Strongylocentrotus purpuratus (Sp); higher = stronger binding preference; most listed sequences are background and not binding sites
# Details: the construct has about 5 more residues each side
# Procedure, shortened: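 Each ungapped 8-mer received an enrichment E-score from the Universal PBM Analysis Suite, averaged over duplicate arrays. The proteins were Tbr T-box DNA-binding domains, covering the whole T-box plus about five flanking residues, fused to GST and expressed in BL21 E. coli at 20 °C before glutathione affinity purification. Universal Agilent oligonucleotide arrays were made double-stranded by primer extension and incubated with 200 nM protein in PBS (pH 7.5). The arrays were then scanned and quantified, and every 8-mer was scored from probe intensities.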
row,Sequence,PBM E-score of 8-mer
1,AAGGTCCA,-0.186 ± 0.012
2,GTGTTGAA,0.361 ± 0.017
3,AGAAGCCC,-0.186 ± 0.019
4,CATAGGTC,-0.238 ± 0.0045
5,GGGCCCCA,-0.115 ± 0.049
6,CAAGTACG,-0.0184 ± 0.033
7,AGTCCTCA,-0.135 ± 0.014
8,ATCCTGCA,-0.193 ± 0.028
9,CGCAGACG,-0.0251 ± 0.095
10,GGTGCTCA,-0.00137 ± 0.08
11,CGGACCGC,-0.0422 ± 0.0036
12,AATCTAGA,0.183 ± 0.042
13,AGAAGCAC,-0.0907 ± 0.041
14,ATCTAACG,0.0264 ± 0.053
15,AGTAGGAC,-0.185 ± 0.038
16,TGCCACCA,0.256 ± 0.03
17,ACGTTAAG,-0.234 ± 0.11
18,ACTGATAG,-0.0143 ± 0.077
19,ACCTAAGC,-0.117 ± 0.015
20,CGGATACC,-0.173 ± 0.0035
21,AGATCAGA,-0.33 ± 0.011
22,CGTTCTCC,-0.118 ± 0.067
23,ACGTCCAC,-0.0232 ± 0.067
24,GAACCAAA,-0.101 ± 0.011
25,AGCATAAA,-0.0913 ± 0.029

row,Sequence,PBM E-score of 8-mer
1,AAAGGTAT,-0.0219 ± 0.0083
2,AGCAGTCG,-0.113 ± 0.015
3,AGCCACCC,-0.17 ± 0.06
4,ACCGAAAT,-0.102 ± 0.1
5,CAACTAAG,-0.0731 ± 0.039
6,GCTGCGCC,-0.0003 ± 0.065
7,TTACGTAA,-0.125 ± 0.0026
8,AGCCCTTC,-0.207 ± 0.033
9,CAGCTGCA,-0.0417 ± 0.02
10,CAAGTCTC,0.167 ± 0.046
11,AGCCGACT,-0.187 ± 0.025
12,TCTGGGCA,-0.114 ± 0.033
13,ACAAACAG,-0.00793 ± 0.042
14,GATAAGAA,0.0672 ± 0.0061
15,TGAAGACA,0.0696 ± 0.0097
16,CGCGCCGA,0.157 ± 0.041
17,CCCGGCCA,-0.237 ± 0.019
18,CGAGCATC,-0.0427 ± 0.029
19,AGCCGTAC,-0.274 ± 0.019
20,AGAACGAA,-0.0336 ± 0.027
21,AAGATAAT,-0.162 ± 0.066
22,GCGGTCAA,-0.103 ± 0.051
23,CCGCGGTC,-0.173 ± 0.011
24,GCCCTAGC,-0.269 ± 0.04
25,CATATTTA,-0.0944 ± 0.096

row,Sequence,PBM E-score of 8-mer
1,TCACGTCA,0.115 ± 0.019
2,TTTGCAAA,-0.08 ± 0.063
3,GTCTAGCA,0.0552 ± 0.044
4,AGTGGGGC,0.0519 ± 0.051
5,GAAGTGCA,0.147 ± 0.021
6,TAAAGTGA,0.152 ± 0.0019
7,ACGGTAAA,-0.1 ± 0.011
8,ACTCCAAG,-0.0768 ± 0.021
9,GAGTTGCC,0.0808 ± 0.041
10,ACCCTTGA,-0.0396 ± 0.029
11,ACAATGCG,0.222 ± 0.025
12,ACAGTGTA,0.0565 ± 0.017
13,AACTGTCA,0.248 ± 0.051
14,ACCTGCAG,0.0801 ± 0.0056
15,AGTTGCGA,0.3999 ± 0.00081
16,CATCTCGC,0.138 ± 0.024
17,AGCTAGTC,0.0361 ± 0.015
18,CCCTCGAG,-0.187 ± 0.011
19,CCTATGAG,-0.125 ± 0.036
20,AAGACGTC,-0.135 ± 0.13
21,AGATGACG,0.125 ± 0.029
22,AGAGCGAC,0.00812 ± 0.031
23,AAAAACGC,0.0442 ± 0.085
24,ACTCTGTC,-0.0422 ± 0.0026
25,GCCACGAA,0.00399 ± 0.009

row,Sequence,PBM E-score of 8-mer
1,ATACTTTC,-0.0159 ± 0.035
2,CTTGATAA,0.0356 ± 0.11
3,GTCAGCAC,0.273 ± 0.077
4,CGCTCGCA,0.336 ± 0.028
5,AAAACAGA,-0.187 ± 0.057
6,ACCCCCAT,-0.079 ± 0.0034
7,ATATGTCC,-0.286 ± 0.032
8,CTTCCTAA,-0.0989 ± 0.16
9,CCGCACTA,0.0434 ± 0.011
10,CCGAACCC,-0.361 ± 0.024
11,CGTGGGAG,-0.0578 ± 0.057
12,TAATCCAA,-0.0317 ± 0.01
13,CCCCAAAC,-0.1631 ± 0.00051
14,CCCTCTCA,0.0515 ± 0.007
15,ACTCGAAG,0.115 ± 0.014
16,CCCGAGTA,-0.128 ± 0.028
17,ACCGAGAG,-0.15 ± 0.039
18,AACGGACC,-0.115 ± 0.018
19,CCGAAGAG,-0.0935 ± 0.045
20,GGGCGTGA,0.44 ± 0.015
21,GCCGCTTA,-0.0183 ± 0.017
22,TATACAAA,-0.164 ± 0.032
23,GTCGACAA,0.275 ± 0.0098
24,CCAATGAG,-0.24 ± 0.018
25,AGCTGTCG,0.263 ± 0.013

row,Sequence,PBM E-score of 8-mer
1,ACAAGTTC,0.0763 ± 0.052
2,AATTACGC,-0.0182 ± 0.0037
3,CTGACGGC,0.0221 ± 0.079
4,ATCACAGA,0.102 ± 0.074
5,AGGCAAAA,-0.067 ± 0.046
6,AGCCAGAT,-0.172 ± 0.03
7,GGAACTAA,-0.00749 ± 0.0016
8,CGATAGTA,-0.122 ± 0.091
9,CTGTTTGC,0.114 ± 0.1
10,CTACATGA,-0.0618 ± 0.042
11,CGATTGAA,0.107 ± 0.0081
12,AGGCCACG,-0.275 ± 0.066
13,TAGCGCGA,0.3785 ± 0.0014
14,AGAAGGAA,-0.175 ± 0.0074
15,ACGTGTTA,0.431 ± 0.015
16,AGCGTTAA,0.36 ± 0.025
17,AGATAGCA,0.0811 ± 0.0055
18,CTAGGCGA,-0.00077 ± 0.096
19,GACTTTAC,-0.0798 ± 0.014
20,ATTGTTCA,-0.0397 ± 0.014
21,ACGGGAAC,-0.0123 ± 0.072
22,GAAGTGTC,0.42864 ± 0.00011
23,ACTGAGTG,0.19 ± 0.047
24,AGGTTTCA,0.102 ± 0.031
25,ACTAAGCA,-0.195 ± 0.051

row,Sequence,PBM E-score of 8-mer
1,CCTGCTGC,-0.107 ± 0.0052
2,ATCAGAGA,-0.29 ± 0.02
3,CATTCTAA,-0.151 ± 0.026
4,AATCACTC,0.114 ± 0.018
5,ACGCACCA,0.0513 ± 0.0069
6,TACTATCA,-0.152 ± 0.032
7,ACCCGCGT,0.18 ± 0.057
8,GTTTCGCA,0.36 ± 0.02
9,CATATACC,-0.1917 ± 0.0017
10,GGGGCAGA,-0.245 ± 0.061
11,AAGCCTCT,-0.0688 ± 0.057
12,AAGGTGAG,0.445 ± 0.014
13,AAGCTGCA,0.117 ± 0.016
14,CAAATTGA,0.051 ± 0.068
15,TACGAACA,-0.0421 ± 0.0033
16,CAACCTCA,0.147 ± 0.058
17,CGGAAGAA,-0.0853 ± 0.066
18,CTACTGCC,-0.12 ± 0.042
19,GCCCTTGA,-0.213 ± 0.041
20,CCCGCAAC,-0.0391 ± 0.028
21,TAGATGAA,-0.0885 ± 0.015
22,ACGCTAGT,-0.0251 ± 0.059
23,CGGTGGCC,-0.216 ± 0.1
24,AAAAACTG,-0.101 ± 0.0074
25,CGGCAGGA,-0.125 ± 0.038

row,Sequence,PBM E-score of 8-mer
1,GAGGCTAA,-0.0881 ± 0.039
2,GAGGTGCC,0.379 ± 0.019
3,GGGAATGA,0.0437 ± 0.066
4,GCCACTTA,0.244 ± 0.011
5,ATCTATTG,-0.172 ± 0.11
6,TACGACTA,-0.13 ± 0.016
7,AGACGCGG,-0.22 ± 0.076
8,CCCCACTA,0.089 ± 0.026
9,CAGCATAC,0.0119 ± 0.012
10,CAGAGCTC,-0.265 ± 0.01
11,GCGCGACA,0.3438 ± 0.0009
12,GCACCAAC,0.17 ± 0.084
13,GAGTTACC,0.144 ± 0.011
14,ACGGTTCA,0.0606 ± 0.0075
15,ACGGGCTC,-0.0955 ± 0.038
16,AGGCACAA,-0.116 ± 0.028
17,AGAGATCT,-0.152 ± 0.025
18,GAACCGTC,0.0629 ± 0.027
19,ACAACGCG,0.174 ± 0.0055
20,GAGTGTAA,0.235 ± 0.04
21,AGGGAACC,-0.336 ± 0.03
22,CGATCCTA,-0.0748 ± 0.024

# Source: the supplement of paper PMC4166925
